{
  "source": "PubChem BioAssay AID2147",
  "about": "(National Center for Advancing Translational Sciences (NCATS), 2009)",
  "note": "About 3,600 (1.6%) of roughly 230,000 compounds were called active. Inconclusive means that the source gave no clear call. Such entries were picked first, then a sample of the others. Calls come from the whole dose curve; as a rule, active = well fitted inhibition curve with a large enough effect (not every such curve was filed as active); inconclusive = small, poorly fitted or top-dose-only effect, or another doubt; inactive = no such curve, though single readings can be large or run the other way. Potencies of inconclusive entries are doubtful fits and often do not repeat. Note: nearly all actives have a fitted effect of over 50% in size. Potency is the fitted concentration of half-maximal effect; tags give direction and shape of the fitted curve.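 Throughout, for activity change, negative = inhibition: 0% = wells with enzyme and -100% = buffer wells without enzyme.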",
  "data": [
    {"molecular_target": "Lysine-specific demethylase 4E (Homo sapiens) (UniProt B2RXH2)", "sequence (B2RXH2 whole entry, looked up, the tested form may be a part)": "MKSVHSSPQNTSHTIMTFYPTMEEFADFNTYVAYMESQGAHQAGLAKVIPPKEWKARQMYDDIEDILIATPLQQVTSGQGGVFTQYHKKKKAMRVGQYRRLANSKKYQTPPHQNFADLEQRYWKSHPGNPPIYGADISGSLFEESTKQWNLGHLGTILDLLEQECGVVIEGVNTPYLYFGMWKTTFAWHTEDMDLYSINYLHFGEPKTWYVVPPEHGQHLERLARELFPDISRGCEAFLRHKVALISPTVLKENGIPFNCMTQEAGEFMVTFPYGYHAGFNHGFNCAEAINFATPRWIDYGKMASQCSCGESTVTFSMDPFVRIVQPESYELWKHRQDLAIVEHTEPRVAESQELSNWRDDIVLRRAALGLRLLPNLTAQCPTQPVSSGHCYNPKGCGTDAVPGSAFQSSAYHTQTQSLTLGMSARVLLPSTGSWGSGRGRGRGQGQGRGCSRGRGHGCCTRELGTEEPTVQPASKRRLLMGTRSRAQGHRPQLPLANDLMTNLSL", "test": "qHTS Assay for Inhibitors of Human Jumonji Domain Containing 2E (JMJD2E)", "details": "JMJD2E catalytic domain, FDH-coupled NADH fluorescence (FDH is formaldehyde dehydrogenase); series mostly up to 57.1 µM; activity change, negative = inhibition: at the top concentration", "values": [
      {"smiles": "COc1cc(-c2cc3nc(C)c(C)c(=O)n3[nH]2)cc(OC)c1OC", "Potency": "inconclusive: 39.8 µM [inhibitor, single point]"},
      {"smiles": "COC(=O)c1csc2c(C(F)(F)F)cc(N3CCN(C(=O)Nc4ccccc4)CC3)nc12", "Potency": "inconclusive: 31.6 µM [inhibitor, partial curve]"},
      {"smiles": "COC(=O)c1c(C(=O)OC)c2ccncn2c1Cl", "Potency": "inconclusive: 35.5 µM [inhibitor, single point]"},
      {"smiles": "CS(=O)Cc1cc(Sc2ccccc2)nc(-c2ccncc2)n1", "note": "(stereo not given)", "activity change, negative = inhibition": "inactive: -2.58%"},
      {"smiles": "Cc1cc(C)c(S(C)(=O)=O)c(N(C)N)n1", "activity change, negative = inhibition": "inactive: -1.93%"},
      {"smiles": "CCOC(=O)c1ccc(COC(=O)c2cc3ccccc3oc2=O)o1", "Potency": "inconclusive: 28.2 µM [inhibitor, single point]"},
      {"smiles": "CCCNC(=S)N1CCN(Cc2ccc3c(c2)OCO3)CC1", "Potency": "inconclusive: 28.2 µM [inhibitor, single point]"},
      {"smiles": "Cc1cc(N2CCN(C(=O)c3ccco3)CC2)n2nc(-c3cccc(F)c3)cc2n1", "Potency": "inconclusive: 35.5 µM [inhibitor, single point]"},
      {"smiles": "CC(=O)c1cccc(N/C=C\\C(=O)c2ccc(C)cc2)c1", "Potency": "inconclusive: 35.5 µM [inhibitor, single point]"},
      {"smiles": "COc1ccccc1NS(=O)(=O)c1cc(NC(=O)c2ccncc2)ccc1N1CCCC1", "activity change, negative = inhibition": "inactive: -17.4%"},
      {"smiles": "O=C1NCCNC(=O)c2ccccc2OCCOc2ccccc21", "activity change, negative = inhibition": "inactive: 6.31%"},
      {"smiles": "CCOC(=O)Cn1nc(/C=C/c2ccc(C)cc2)ccc1=O", "Potency": "inconclusive: 28.2 µM [inhibitor, partial curve]"},
      {"smiles": "CCCCOC(=O)C1=C(C)Nc2nnnn2C1c1ccc(OC)c(OC)c1OC", "note": "(stereo not given)", "activity change, negative = inhibition": "inactive: -1.11%"},
      {"smiles": "COc1ccc(C2C=C(c3ccccc3)Nc3nnnn32)cc1", "note": "(stereo not given)", "Potency": "inconclusive: 35.5 µM [inhibitor, single point]"},
      {"smiles": "COc1ccc(-n2c(COc3cccc4cccnc34)nnc2SCC(=O)O)cc1", "Potency": "inconclusive: 31.6 µM [inhibitor, single point]"},
      {"smiles": "COc1ccc(OC)c(NC(=O)c2cc3oc4ccccc4c3cc2O)c1", "Potency": "inconclusive: 22.4 µM [inhibitor, partial curve]"},
      {"smiles": "CCCCNc1nc(CC(C)=O)ns1", "activity change, negative = inhibition": "inactive: 1.99%"},
      {"smiles": "CCOC(=O)Cc1csc(Nc2ccc(Cl)cc2)n1", "activity change, negative = inhibition": "inactive: -3.66%"},
      {"smiles": "CC1=Nc2ccccc2/C1=C/c1nc(-c2ccc(C)s2)oc1O", "Potency": "inconclusive: 20 µM [inhibitor, single point]"},
      {"smiles": "Cc1cccc(N2CCN(C(=O)Cc3ccc(-n4c(=O)[nH]c5ccsc5c4=O)cc3)CC2C)c1", "note": "(stereo not given)", "activity change, negative = inhibition": "inactive: 6.73%"},
      {"smiles": "NNC(=O)C=C1CCN(c2ncc(C(F)(F)F)cc2Cl)CC1", "Potency": "inconclusive: 15.8 µM [inhibitor, partial curve, poor fit]"},
      {"smiles": "COc1ccccc1N=c1oc2cc(O)ccc2cc1C(=O)NCC1CCCO1", "note": "(stereo not given)", "Potency": "inconclusive: 31.6 µM [inhibitor, partial curve]"},
      {"smiles": "CCN(CC)c1ccc(NC(=S)NC(=O)c2cccs2)cc1", "activity change, negative = inhibition": "inactive: -29.6%"},
      {"smiles": "COc1ccc(-c2cc(C(F)(F)F)c(C#N)c(SCC(=O)Nc3nc(C)co3)n2)cc1", "Potency": "inconclusive: 28.2 µM [inhibitor, partial curve]"},
      {"smiles": "Cc1cccc2nc(-c3ccco3)c(Nc3ccc4c(c3)OCCO4)n12", "Potency": "inconclusive: 28.2 µM [inhibitor, partial curve]"},
      {"smiles": "COc1ccc(C(CC(=O)N2CCCCC2)C(C)C)cc1", "note": "(stereo not given)", "activity change, negative = inhibition": "inactive: 8.37%"},
      {"smiles": "Cc1ccnc(NC(=O)CCC(=O)N(CC(=O)NC2CCCCC2)C2CCCC2)c1", "activity change, negative = inhibition": "inactive: -3.27%"},
      {"smiles": "CCCc1n[nH]c(=S)n1Cc1ccco1", "activity change, negative = inhibition": "inactive: -3.87%"},
      {"smiles": "COc1cc([C@@H]2[C@H]3CNCC=C3C(C#N)=C(N)C2(C#N)C#N)ccc1OC(C)C", "Potency": "inconclusive: 17.8 µM [inhibitor, partial curve]"},
      {"smiles": "O=C(Nc1ccc2ccccc2c1)c1cnccn1", "activity change, negative = inhibition": "inactive: 1.96%"},
      {"smiles": "COc1ccccc1N1CCN(C(=O)CSc2ncccc2-c2nc3ccccc3[nH]2)CC1", "Potency": "inconclusive: 25.1 µM [inhibitor, partial curve]"},
      {"smiles": "COc1ccc(C2NC3=C(CCC3)C3(C#N)C(OC)(OC)N=C(N)C23C#N)cc1", "note": "(stereo not given)", "Potency": "inconclusive: 25.1 µM [inhibitor, partial curve]"},
      {"smiles": "Cc1cc(C)n2cc(CSc3nnnn3C)nc2n1", "Potency": "inconclusive: 28.2 µM [inhibitor, partial curve]"},
      {"smiles": "COc1ccc(C2=CC(c3c(C)nn(-c4ccccc4)c3Cl)n3nnnc3N2)cc1OC", "note": "(stereo not given)", "Potency": "inconclusive: 39.8 µM [inhibitor, single point]"},
      {"smiles": "COc1ccc(NC(=O)c2sc3nc(C)nc(N4CCOCC4)c3c2C)c(OC)c1", "Potency": "inconclusive: 35.5 µM [inhibitor, single point]"},
      {"smiles": "CCCc1cc(=O)oc2cc(OCC(=O)NCc3cccs3)ccc12", "Potency": "inconclusive: 28.2 µM [inhibitor, partial curve]"},
      {"smiles": "CCc1ccc(-c2nnn(Cc3nc4ccccc4s3)n2)cc1", "Potency": "inconclusive: 39.8 µM [inhibitor, single point]"},
      {"smiles": "CCCN1Cc2cccc(C(=O)NCCCOC(C)C)c2C1=O", "activity change, negative = inhibition": "inactive: 3.27%"},
      {"smiles": "COc1ccc(OC)c(C2C(C(=O)Nc3cccnc3)=C(C)NC3=C2C(=O)CCC3)c1", "note": "(stereo not given)", "Potency": "inconclusive: 28.2 µM [inhibitor, single point]"},
      {"smiles": "Oc1cc(O)c2c(c1)OC(c1ccc(O)c(O)c1)C(O)C2", "note": "(stereo not given)", "Potency": "active: 11.2 µM"},
      {"smiles": "Cc1cc(C)nc(N2CCC(C(=O)Nc3ccc4c(c3)OCO4)CC2)n1", "Potency": "inconclusive: 39.8 µM [inhibitor, single point]"},
      {"smiles": "Cc1ccc(-c2cc(C(F)(F)F)n3ncc(C(=O)O)c3n2)cc1", "Potency": "inconclusive: 6.31 µM [inhibitor, single point]"},
      {"smiles": "CC1OC2(C)OC(=N)C1(C#N)C(C#N)(C#N)C2c1ccccc1", "note": "(stereo not given)", "activity change, negative = inhibition": "inactive: 4.88%"},
      {"smiles": "Cc1c(Br)c(=O)oc2c(C)c(O)ccc12", "Potency": "inconclusive: 8.91 µM [inhibitor, full curve]"},
      {"smiles": "CC/C(C)=N/Nc1nc2c(c(=O)[nH]c(=O)n2C)n1CCc1ccccc1", "Potency": "inconclusive: 28.2 µM [inhibitor, partial curve]"},
      {"smiles": "Cc1ccc(N2C(=O)c3ccccc3C2C(=O)c2ccc(C)c(C)c2O)cc1", "note": "(stereo not given)", "Potency": "inconclusive: 35.5 µM [inhibitor, single point]"},
      {"smiles": "CCOC(=O)c1c(NC(=O)CSc2nc3nc(C)cc(C)n3n2)sc(CC)c1C", "Potency": "inconclusive: 39.8 µM [inhibitor, single point]"},
      {"smiles": "CCOC(=O)N1CCN(C(=O)CCc2c(C)nc3c(c(C)nn3-c3ccc(C)c(C)c3)c2C)CC1", "Potency": "inconclusive: 3.16 µM [inhibitor, partial curve, poor fit]"},
      {"smiles": "Cc1ccc(OCCN2CCN(c3nc(NCc4ccco4)c4ccccc4n3)CC2)cc1", "Potency": "inconclusive: 31.6 µM [inhibitor, single point]"},
      {"smiles": "O=C1CCCC(O)=C1Sc1ccccc1C(=O)O", "activity change, negative = inhibition": "inactive: 0.049%"},
      {"smiles": "CCOC(=O)c1cc2c(=O)n3ccccc3nc2n(Cc2ccccc2)c1=N", "Potency": "inconclusive: 15.8 µM [inhibitor, partial curve]"},
      {"smiles": "COc1cc(C2CC(=O)c3cnc(N4CCN(Cc5ccccc5)CC4)nc3C2)cc(OC)c1OC", "note": "(stereo not given)", "activity change, negative = inhibition": "inactive: -11%"},
      {"smiles": "Cc1cc(=O)oc2cc(NC(=O)CC3(CC(=O)O)CCCC3)ccc12", "Potency": "inconclusive: 31.6 µM [inhibitor, partial curve]"},
      {"smiles": "CCCc1nc2oc(C(=O)OCC)c(N)c2c2c1COC(C)(C)C2", "Potency": "inconclusive: 22.4 µM [inhibitor, partial curve]"},
      {"smiles": "O=C(O)c1cc(NC(=O)c2ccc(Cl)c([N+](=O)[O-])c2)cc(C(=O)O)c1", "Potency": "inconclusive: 28.2 µM [inhibitor, single point]"},
      {"smiles": "COc1cccc(/C=N/NC(=O)CCNc2n[nH]c(=O)[nH]c2=O)c1OC", "Potency": "inconclusive: 31.6 µM [inhibitor, partial curve]"},
      {"smiles": "CSc1ccc(/C=C(\\NC(=O)c2ccc(C)cc2)C(=O)Nc2cccc(C)c2)cc1", "Potency": "inconclusive: 20 µM [inhibitor, partial curve]"},
      {"smiles": "COc1cccc(/C=C/C(=O)O)c1C(C)C", "Potency": "inconclusive: 28.2 µM [inhibitor, partial curve]"},
      {"smiles": "Cc1cc(C2=NNC(=NCCc3ccccc3)SC2)c(C)n1-c1c(C)n(C)n(-c2ccccc2)c1=O", "activity change, negative = inhibition": "inactive: -18.8%"},
      {"smiles": "c1ccc2c(c1)[nH]c1c(N3CCC4(CC3)OCCO4)ncnc12", "Potency": "inconclusive: 28.2 µM [inhibitor, partial curve]"},
      {"smiles": "COc1ccc2[nH]c3c(=O)n(CCc4ccccc4)cnc3c2c1", "Potency": "inconclusive: 31.6 µM [inhibitor, partial curve]"},
      {"smiles": "C/C=C\\C=C/C(=O)Nc1cccc(C2=NOC3(C2)C[C@H](C(N)=O)N(C(=O)c2ccc(OC)cc2)C3)c1", "note": "(stereo not given in full)", "activity change, negative = inhibition": "inactive: -16.4%"},
      {"smiles": "O=S(=O)(c1ccccc1)c1nc(-c2ccco2)oc1Nc1ccccc1", "Potency": "inconclusive: 35.5 µM [inhibitor, single point]"},
      {"smiles": "CC(C)OC(=O)Cn1nnc2c(cnn2-c2ccccc2)c1=O", "activity change, negative = inhibition": "inactive: -4.78%"},
      {"smiles": "c1csc(-c2ccnc3ncnn23)c1", "Potency": "inconclusive: 28.2 µM [inhibitor, partial curve]"},
      {"smiles": "CC1(CC(=O)N/N=C/c2ccc(-c3cccc(C(F)(F)F)c3)o2)OCCO1", "Potency": "inconclusive: 35.5 µM [inhibitor, single point]"},
      {"smiles": "CCN(CC)C(=O)C(=O)c1cccn1-c1ccccc1C#N", "activity change, negative = inhibition": "inactive: 3.68%"},
      {"smiles": "CCOC(=O)C/C(N)=N/N(C)c1ncc(C(F)(F)F)cc1Cl", "Potency": "inconclusive: 25.1 µM [inhibitor, single point]"},
      {"smiles": "COC(=O)C1OC(=O)C2OC23[C@]2(C)C(O)CC4C(C)(C)C(OC(C)=O)CC(OC(C)=O)[C@@]4(C)C2CC[C@@]13C", "note": "(stereo not given in full)", "Potency": "inactive"},
      {"smiles": "CCCn1nc2cc(C(=O)NCc3ccccc3OC)ccc2c1OCC", "Potency": "inconclusive: 35.5 µM [inhibitor, partial curve]"}
    ]}
  ]
}
